Reference: the antibiotic and cytotoxicity screens of Wong et al. (2023)
Some of the results follow.

How the values were obtained:
[1] = test system: HSkMC (human skeletal muscle cells); test: cytotoxicity call (relative viability < 0.9); settings: 10 µM
[2] = test system: S. aureus RN4220; test: growth inhibition call (relative growth <= 0.2); settings: 50 µM

Compound	cytotoxicity call [1]	growth inhibition call [2]
C[C@H]1CN([C@@H](C)CO)S(=O)(=O)c2ccc(-c3ccc(F)cc3)cc2O[C@@H]1CN(C)S(C)(=O)=O	inactive	inactive
CC(C)NC(=O)[C@@H]1c2ccccc2C(=O)N(Cc2cc(F)cc(C(F)(F)F)c2)[C@H]1c1ccc(CO)cc1	inactive	inactive
Cn1c(=O)c2c(ncn2CCNC2=NCCC2)n(C)c1=O	inactive	inactive
COc1ccc([C@@H]([C@H](Cc2ccccc2)OC(C)=O)N2C[C@H](CC(=O)N(C)C)[C@@H]3[C@H]([C@@H]2Cc2ccccc2)N(C)O[C@H]3c2ccccc2)cc1	inactive	inactive
C[C@H](CO)N1C[C@H](C)[C@@H](CN(C)S(=O)(=O)c2cccs2)Oc2ccc(NC(=O)Cn3cnnn3)cc2C1=O	inactive	inactive
COc1ccc(S(=O)(=O)Nc2ccc3c(c2)C(=O)N([C@@H](C)CO)C[C@@H](C)[C@@H](CN(C)S(=O)(=O)c2cn(C)cn2)OCCCC[C@@H](C)O3)cc1	inactive	inactive
C[C@@H]1CN([C@@H](C)CO)C(=O)c2cc(NC(=O)Nc3ccc(F)cc3)ccc2O[C@@H](C)CCCCO[C@H]1CN(C)C(=O)CCCN(C)C	inactive	inactive
CC12CCC3c4ccc(O)cc4CCC3C1CC(O)C2O (stereo unspecified)	inactive	inactive
Cc1noc(C)c1NC(=O)Nc1ccc2c(c1)C(=O)N([C@@H](C)CO)C[C@H](C)[C@@H](CN(C)C(=O)Nc1ccccc1)OCCCC[C@H](C)O2	inactive	inactive
C[C@@H]1CN([C@H](C)CO)C(=O)c2cccc(NS(=O)(=O)c3ccc(Cl)cc3)c2O[C@@H]1CN(C)Cc1ccc(C(=O)Nc2ccccc2N)cc1	inactive	inactive
CC(C)NC(=O)N[C@H]1C=C[C@H](CC(=O)NCCCN(C)C)O[C@@H]1CO	inactive	inactive
COc1ccc(CN(C)C[C@H]2OCCCC[C@H](C)Oc3ccc(NC(=O)Nc4ccc(F)cc4)cc3C(=O)N([C@H](C)CO)C[C@@H]2C)cc1	inactive	inactive
CCCNC(=O)c1cc2c(c(-c3cccc(-c4cccc(F)c4)c3)n1)[C@@H](CCO)N([S@](=O)C(C)(C)C)C2	inactive	inactive
COc1ccc(NC(=O)N(C)C[C@@H]2OCCCC[C@@H](C)Oc3ccc(NS(=O)(=O)c4ccc(C)cc4)cc3C(=O)N([C@H](C)CO)C[C@H]2C)cc1	inactive	inactive
C[C@@H]1CCCCO[C@H](CN(C)Cc2ccncc2)[C@@H](C)CN([C@@H](C)CO)C(=O)c2cc(NC(=O)Nc3ccc(F)cc3)ccc2O1	inactive	inactive
O=C(N[C@@H](c1ccccc1)c1ccc2ccccc2n1)C1CCN(Cc2ccc(Oc3ccccc3)cc2)CC1	inactive	inactive
COc1ccc(NC(=O)N(C)C[C@H]2OCCCC[C@H](C)Oc3ccc(NC(=O)Nc4c(C)noc4C)cc3C(=O)N([C@H](C)CO)C[C@@H]2C)cc1	inactive	inactive
CN(C)C(=O)COC[C@]12COC[C@H]1CN(S(C)(=O)=O)C2	inactive	inactive
N#CN=C1NC(=O)CC(=O)N1	inactive	inactive
COc1ccc2c3c([nH]c2c1)[C@@H](CO)N(C[C@]13CN(CCc2ccccc2)C1)C(=O)CN1CCOCC1	inactive	inactive
COc1ccc(S(=O)(=O)Nc2ccc3c(c2)C(=O)N([C@H](C)CO)C[C@H](C)[C@H](CN(C)C(=O)Nc2ccc(F)cc2)OCCCC[C@@H](C)O3)cc1	inactive	inactive
C[C@@H]1CCCCO[C@@H](CN(C)C(=O)C2CCCCC2)[C@H](C)CN([C@@H](C)CO)C(=O)c2cc(NC(=O)NC3CCCCC3)ccc2O1	inactive	inactive
CC(C)NC(=O)Nc1ccc2c(c1)C(=O)N([C@@H](C)CO)C[C@H](C)[C@@H](CN(C)S(=O)(=O)c1cccs1)O2	inactive	inactive
